Tests used:
[1] = biological target: T1, biotin-conjugated ^MBPCENP-U^58-114/pT98 (immobilised ligand of BLI) (human, UniProt Q71F23 58-114, phosphothreonine at 98; biotin (Gly-Gly-Gly-Gly-Biotin conjugated to the C-terminal PLPETG peptide by sortase A)); assay: BLI; biotin-conjugated phosphorylated ^MBPCENP-U^58-114 immobilised on streptavidin sensors, ^MBPPBD or ^6HisPLK1^FL as analyte; 25 °C, 20 mM HEPES pH 7.5, 2.5% glycerol, 300 mM NaCl, 0.1 mM TCEP, 0.3 g/L BSA, 0.05% Tween20; one site for pT78, two sites (KD1, KD2) for pT98 and pT78/pT98; conditions: both partners purified
T1 construct: source: E. coli BL21 (DE3), purified; phosphorylated in vitro with CDK1; biotin-labelled with sortase A; not shown: MBP, N-terminal, kept; PLPETG peptide conjugated with Gly-Gly-Gly-Gly-Biotin, C-terminal, kept
T1 sequence (looked up): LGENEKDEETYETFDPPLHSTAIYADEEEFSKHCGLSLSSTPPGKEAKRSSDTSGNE

[2] = biological target: T2, biotin-conjugated ^MBPCENP-U^58-114/pT78/pT98 (immobilised ligand of BLI) (human, UniProt Q71F23 58-114, phosphothreonine at 78; phosphothreonine at 98; biotin (Gly-Gly-Gly-Gly-Biotin conjugated to the C-terminal PLPETG peptide by sortase A)); assay: as above; conditions: both partners purified
T2 construct: source: E. coli BL21 (DE3), purified; phosphorylated in vitro with CDK1 and PLK1; biotin-labelled with sortase A; not shown: MBP, N-terminal, kept; PLPETG peptide conjugated with Gly-Gly-Gly-Gly-Biotin, C-terminal, kept
T2 sequence (looked up): T1 sequence (looked up)

- KD1 (primary, higher-affinity site) [1]: 16 nM
- KD2 (secondary, lower-affinity site) [1]: 4 µM
- koff of the site of KD1 [1]: 0.00071 s⁻¹
- koff of the site of KD2 [1]: 0.029 s⁻¹
- kon of the site of KD1 [1]: 45000 M⁻¹ s⁻¹
- kon of the site of KD2 [1]: 7400 M⁻¹ s⁻¹
- KD1 (primary, higher-affinity site) [2]: 2.7 nM
- KD2 (secondary, lower-affinity site) [2]: 1000 nM
- koff of the site of KD1 [2]: 0.00012 s⁻¹
- koff of the site of KD2 [2]: 0.018 s⁻¹
- kon of the site of KD1 [2]: 45000 M⁻¹ s⁻¹
- kon of the site of KD2 [2]: 18000 M⁻¹ s⁻¹
B1: ^MBPPBD (6xHis-MBP-TEV-PLK1^[…]) (domain or fragment)
chain: not shown
notes: PLK1, human, […] (Polo-box domain construct); The plasmids paragraph speaks of expression in insect cells, the purification paragraph of E. coli BL21 (DE3); TEV site between MBP and PLK1; source: E. coli BL21 (DE3), purified (HisTALON, SEC); not shown: MBP, N-terminal, kept

From article PMC13161223, “Molecular anatomy of PLK1 master docking motifs” (Nature Communications, 2026)
